In all, about 310,000 compounds went through this assay and about 14,000 (4.5%) showed an effect of 50% or more. The effect is printed as a negative number. This is one part of the list.
Each compound was assayed against human ether-à-go-go-related gene (hERG) potassium channel (human, UniProt Q12809) (assay: primary screen, population patch clamp on CHO cells stably expressing hERG).
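Note: peak tail current of the secondary pulse compared with the same well before compound.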

Sequence of human ether-à-go-go-related gene (hERG) potassium channel (Q12809 whole entry, looked up): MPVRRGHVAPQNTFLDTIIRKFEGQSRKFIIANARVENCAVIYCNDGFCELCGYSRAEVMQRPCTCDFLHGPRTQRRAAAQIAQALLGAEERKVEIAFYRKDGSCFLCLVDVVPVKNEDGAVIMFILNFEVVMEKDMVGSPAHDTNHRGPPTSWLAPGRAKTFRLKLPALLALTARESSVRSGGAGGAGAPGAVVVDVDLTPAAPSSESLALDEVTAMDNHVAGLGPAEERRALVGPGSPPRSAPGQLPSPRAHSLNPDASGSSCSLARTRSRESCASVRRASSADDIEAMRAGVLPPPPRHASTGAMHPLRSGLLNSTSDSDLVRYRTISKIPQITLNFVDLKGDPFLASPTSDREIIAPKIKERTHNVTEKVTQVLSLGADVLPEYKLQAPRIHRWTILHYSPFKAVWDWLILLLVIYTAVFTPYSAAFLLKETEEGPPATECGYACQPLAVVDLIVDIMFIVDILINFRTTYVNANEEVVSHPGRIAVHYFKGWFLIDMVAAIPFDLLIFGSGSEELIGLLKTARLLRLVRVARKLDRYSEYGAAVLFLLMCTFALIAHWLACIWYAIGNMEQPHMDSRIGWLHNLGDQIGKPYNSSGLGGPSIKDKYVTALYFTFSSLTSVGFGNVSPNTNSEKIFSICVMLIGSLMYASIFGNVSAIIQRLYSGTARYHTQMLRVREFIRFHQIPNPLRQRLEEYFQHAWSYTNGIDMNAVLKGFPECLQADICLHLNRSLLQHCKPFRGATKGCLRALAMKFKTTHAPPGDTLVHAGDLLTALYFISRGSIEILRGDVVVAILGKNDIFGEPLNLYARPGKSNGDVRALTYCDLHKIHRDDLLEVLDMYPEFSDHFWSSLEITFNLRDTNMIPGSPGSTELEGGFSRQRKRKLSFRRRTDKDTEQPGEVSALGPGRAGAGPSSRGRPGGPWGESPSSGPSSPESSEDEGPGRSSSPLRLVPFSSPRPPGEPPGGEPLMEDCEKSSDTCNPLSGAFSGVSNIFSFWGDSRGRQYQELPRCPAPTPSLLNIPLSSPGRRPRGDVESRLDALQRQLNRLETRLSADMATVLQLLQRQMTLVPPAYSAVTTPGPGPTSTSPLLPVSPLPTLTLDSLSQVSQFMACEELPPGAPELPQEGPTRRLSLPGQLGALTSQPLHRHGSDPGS

Row | SMILES | hERG current change (%, negative = inhibition) at 10uM
1 | Cc1c(S(=O)(=O)NCCc2ccccc2)c(=O)n(C)c(=O)n1C | -1.25%
2 | Cn1nnnc1SCc1c(F)cccc1F | 5.34%
3 | N#C/C(=C(/O)COC(=O)COc1ccc(Cl)cc1)c1nc2ccccc2[nH]1 | 16%
4 | COc1ccc(-c2noc(CN3CCN(c4ccccc4)CC3)n2)cc1 | 3.94%
5 | COc1cc(C(=O)N(CCc2ccccc2)C2CC3CCC(C2)N3C)cc(OC)c1OC.Cl.O (centres unmarked) | -38.3%
6 | Cn1c(CC(=O)Nc2cccc(Cl)c2Cl)nnc1SCC(=O)NC1=NCCS1 | 17.8%
7 | O=C(CSc1ccc(-c2ccc(F)cc2)nn1)N1CCN(c2ccccc2)CC1 | -12.7%
8 | CC(=O)O.c1ccc2c(c1)NC1(CCCCCC1)n1c-2nc2ccccc21 | -19.9%
9 | CC(/C=N/Nc1nc(C)cc(C)n1)=C\c1ccc(C(C)C)cc1 | -6.34%
10 | CCOC(=O)[C@H]1[C@H]2COc3ccc(Cl)cc3[C@@H]2N2C(=O)c3ccc(Cl)cc3NC(=O)[C@@]12C | 2.36%
11 | CCCCNC(=O)c1ccc(CS(=O)(=O)c2ccc(OC)cc2)o1 | -7%
12 | Cc1cccc2sc(N(CCCN(C)C)C(=O)c3cc4ccccc4oc3=O)nc12.Cl | -54.6%
13 | Cc1cc(N)n(-c2ccc(C)c(C)c2)n1.Cl | 19.4%
14 | COc1cc(NC(=O)COC(=O)CSc2ccccc2F)c(C)cc1[N+](=O)[O-] | 15.9%
15 | COC(=O)c1ccc(C23CC4(C2)[C@H](CN(CC2CCCCC2)[C@@H]4c2ccccc2)C3c2ccc(C(F)(F)F)cc2)cc1 (some centres unmarked) | 6.02%
16 | CCOc1ccc(NC(=O)CSc2nncc(=O)n2N)cc1 | 23.2%
17 | CCc1ncc(C(=O)c2ccc(OC)cc2)n1C | 0.711%
18 | Cn1ccnc1C(=O)c1cccc(Br)c1 | -26%
19 | Cc1nc2ccccn2c1C(=O)/C=C/c1ccc(F)cc1 | -11.6%
20 | Cc1nnc(NC(=O)CSc2nnc(CCNC(=O)c3ccccc3F)n2C)s1 | 2.77%
21 | CSc1oc(-c2ccc(F)cc2)nc1S(=O)(=O)c1ccccc1 | -1.15%
22 | O=C(c1ccc(OC2CCN(C/C=C/c3ccccc3)CC2)cc1)N1CCCC1 | -75.7%

Row | SMILES | hERG current change (%, negative = inhibition) at 10uM
23 | Cc1cccc(N2CC(C(=O)Nc3ccc(S(=O)(=O)N4CCOCC4)cc3)CC2=O)c1 (centres unmarked) | 2.67%
24 | COc1ccc(CC(=O)N2CCN=C2SCc2ccc([N+](=O)[O-])cc2)cc1 | -52.2%
25 | CCOc1ccc(N=C(NN)c2ccc3ccccc3n2)cc1 | 3.33%
26 | Cc1cccc(-n2ccnc2SCC(=O)Nc2nnc(C)s2)c1 | -25.8%
27 | CCOC(=O)c1sc(=NC(=O)c2c(F)cccc2F)n(C)c1C | 22.2%
28 | CC(=O)Nc1ccc(NC(=O)[C@@H](NC(=O)c2ccccc2F)C(C)C)cc1 | 14.1%
29 | Cc1ccccc1CS(=O)(=O)Cc1ccc(C(=O)NCc2ccccn2)o1 | 17.4%
30 | CN(Cc1ccccc1)C(=O)c1ccc(NC(=O)Cc2cccc(NC(=O)C3CCCN(C(=O)C4CCC4)C3)c2)cc1 (centres unmarked) | 1.51%
31 | COc1ccccc1-c1coc2cc(O)cc(O)c2c1=O | 9.89%
32 | O=C(Nc1ncccc1O)c1cc2ccccc2o1 | 22.3%
33 | O=C(NCc1ccccc1)C(c1ccncc1)N(C(=O)c1csnn1)c1ccccc1F (centres unmarked) | 5.56%
34 | C=CCNc1ncnc2sc(SC)nc12 | 12.3%
35 | CC1CCCCN1C(=O)Cn1c(=O)n(CCC(=O)NCc2ccco2)c(=O)c2sccc21 (centres unmarked) | 1.58%
36 | Cc1ccc(Cn2c(=N)c(C(=O)NCCN3CCOCC3)cc3c(=O)n4ccccc4nc32)cc1 | -63.2%
37 | CC(=O)Cc1c(C(=O)O)c(C)nn1-c1ccccc1 | 21.5%
38 | O=C1CC(c2ccc3c(c2)OCO3)Sc2nc3ccccc3n21 (centres unmarked) | -2.47%
39 | CCCCCNC(=O)C1c2ccccc2Oc2ccccc21 | 2.44%
40 | COc1ccccc1N1CCN(C(=O)C(CC(C)C)NC(=O)C2CCCCC2)CC1 (centres unmarked) | -16.6%
41 | CS(=O)(=O)N(CC(=O)NC1CCCCC1)Cc1ccc(F)cc1 | 15.8%
42 | CCCCn1c(SCC(=O)NCc2cccs2)nc2c1c(=O)n(C)c(=O)n2C | -35.4%
43 | O=C(Cc1ccc2c(c1)CCCC2)Nc1ccc2ccccc2c1 | 27.2%
44 | COc1ccccc1C(=O)NC(=S)Nc1ccc(NC(=O)c2ccco2)cc1 | -26%

— article PMC4336329 (PLoS ONE, 2015)
